# Reference: PubChem BioAssay (NCATS)
# Where “and” joins values, the source holds several entries; their conditions need not be identical. Equal values may be shown once. Inconclusive results, whose numbers are uncertain, are shown with a selection of clear calls. For part of these data: Potencies beside an inconclusive call are fits to weak or partial responses and may not hold up. For part of these data: “Side channel” marks fits to a control or component signal instead of the main read-out. Calls of active or inactive are those of the source. Unless noted, calls come from the whole dose curve; as a rule, active = well fitted curve in the direction sought with a large enough effect; inconclusive = small, poorly fitted or top-dose-only effect, or another doubt; inactive = no such curve, though single readings can be large; an effect the other way counts as inactive or inconclusive.
# How the values were obtained:
# [1] = biological target: Estrogen receptor (Homo sapiens) (UniProt P03372); assay: qHTS assay for small molecule antagonists of estrogen receptor alpha signaling (AID 588513; active = well fitted curve in the direction sought with a large enough effect in the signal ratio, with a control signal flat, not every such curve was filed as active; inconclusive = small, poorly fitted or top-dose-only effect, or effect the other way, or a change in a side signal; inactive = no such curve, though single readings can be large or run the other way; the % refers to the signal ratio; note: % is set by controls: 0 for no effect and ±100 for the full control effect); details: ER-alpha-UAS-bla HEK293, beta-lactamase ratio, antagonist mode
# UniProt P03372, sequence (P03372 whole entry, looked up): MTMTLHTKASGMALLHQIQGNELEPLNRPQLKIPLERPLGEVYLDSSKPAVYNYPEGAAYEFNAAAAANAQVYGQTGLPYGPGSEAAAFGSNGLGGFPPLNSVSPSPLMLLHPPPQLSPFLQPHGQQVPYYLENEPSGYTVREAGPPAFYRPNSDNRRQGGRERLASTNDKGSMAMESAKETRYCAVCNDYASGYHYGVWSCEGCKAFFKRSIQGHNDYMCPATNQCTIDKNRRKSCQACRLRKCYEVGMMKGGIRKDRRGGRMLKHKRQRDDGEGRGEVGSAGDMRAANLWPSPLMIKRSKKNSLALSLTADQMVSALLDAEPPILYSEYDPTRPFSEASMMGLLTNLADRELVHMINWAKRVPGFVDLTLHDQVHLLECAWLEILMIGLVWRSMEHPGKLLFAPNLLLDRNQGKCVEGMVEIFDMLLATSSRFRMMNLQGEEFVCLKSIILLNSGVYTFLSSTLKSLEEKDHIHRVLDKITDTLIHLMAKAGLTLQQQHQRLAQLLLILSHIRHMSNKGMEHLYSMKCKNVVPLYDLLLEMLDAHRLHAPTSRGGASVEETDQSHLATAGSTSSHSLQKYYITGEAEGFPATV
# How it was run: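 Cells were plated at 5000/well and incubated 4 h at 37 C. Compounds were added as 1:2 dilution series, duplicates. 17-beta-estradiol (0.5nM final) was added for 18 h before CCF4 detection.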
# [2] = biological target: Estrogen receptor (Homo sapiens) (UniProt P03372); assay: qHTS assay for small molecule agonists of estrogen receptor alpha signaling (AID 588514; calls by dose curve; note: nearly all actives have a fitted effect of over 70% in size; note: potency is the fitted concentration of half-maximal effect;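 for activation: 0% = vehicle only and 100% = reference agonist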); details: ER-alpha-UAS-bla HEK293, beta-lactamase ratio, 18 h; activation: at 76.8 µM (top of the series), percent of full estradiol response, vehicle zero
# How it was run: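 ER-alpha-UAS-bla GripTite HEK293 cells, 5000/well in 2% charcoal/dextran-stripped FBS medium, treated with compound titrations 18 h at 37 C. CCF4 beta-lactamase read by fluorescence after 2 h RT; normalised to 20 nM 17-beta-estradiol (100%) and DMSO (0%), Hill fit for EC50 and efficacy.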
# [3] = biological target: DNA dC->dU-editing enzyme APOBEC-3G (Homo sapiens) (UniProt Q9HC16); assay: qHTS for inhibitors of Vif-A3G interactions: Validation (AID 588379); note: potency is the fitted concentration of half-maximal effect
# UniProt Q9HC16, sequence (Q9HC16 whole entry, looked up): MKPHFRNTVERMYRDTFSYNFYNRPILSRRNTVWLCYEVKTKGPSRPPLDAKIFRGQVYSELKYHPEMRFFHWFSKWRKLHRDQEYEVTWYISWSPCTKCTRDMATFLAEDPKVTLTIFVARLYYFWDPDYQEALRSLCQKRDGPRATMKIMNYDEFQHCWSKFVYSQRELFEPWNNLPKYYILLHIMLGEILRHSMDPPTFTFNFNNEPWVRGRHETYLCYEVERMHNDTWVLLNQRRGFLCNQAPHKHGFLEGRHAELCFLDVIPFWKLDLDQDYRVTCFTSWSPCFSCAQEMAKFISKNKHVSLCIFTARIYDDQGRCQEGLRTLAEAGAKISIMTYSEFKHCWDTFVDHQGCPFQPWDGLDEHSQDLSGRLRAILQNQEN
# How it was run: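 HeLa cells stably expressing Vif and A3G-eYFP, 700 cells/well, incubated overnight at 37 deg C, then exposed to compound overnight at 37 deg C. Inhibition of Vif-mediated degradation read as increased yellow fluorescence (Ex 488/Em 500-530) by laser-scanning cytometry.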
# [4] = Cell Viability - Mesenchymal (AID 546); details: mesenchymal cells viability, qHTS; at 91.7 µM (top of the series);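 note: cells exposed to compound for 40 hours before reading; 0% = DMSO only and -100% = 100 µM tamoxifen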
# How it was run: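 Normal human renal glomerulus-derived kidney mesenchymal cells, 1000 per well in complete medium, were treated with compounds for 40 hr at 37 °C. Viability was read as intracellular ATP by CellTiter-Glo luminescence; AC50 values came from Hill-equation fits of qHTS concentration-response data.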
# [5] = Cell Viability - LYMP2-021 (AID 974);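 note: compound exposure lasts 24 hours at 37 °C; % is set by controls: 0 for no effect and ±100 for the full control effect; nearly all actives have a fitted effect of over 55% in size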
# How it was run: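 Human lymphoblastoid LYMP2-021 cells, 2500/well in complete medium, treated 24 hours at 37 C. Intracellular ATP by CellTiter-Glo luminescence (30 min, RT); AC50 from Hill fits of concentration-response.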
# [6] = biological target: Peroxisome proliferator-activated receptor gamma (Homo sapiens) (UniProt P37231); assay: qHTS assay for small molecule agonists of peroxisome proliferator-activated receptor gamma signaling (AID 588536; active = well fitted curve in the direction sought with a large enough effect in the signal ratio, with a control signal flat, not every such curve was filed as active; inconclusive = small, poorly fitted or top-dose-only effect, or effect the other way, or a change in a side signal; inactive = no such curve, though single readings can be large or run the other way; the % refers to the signal ratio;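 note: 0% = DMSO basal wells and 100% = rosiglitazone at 2 µM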); details: HEK293 PPARg-UAS-bla, beta-lactamase ratio, 16 h; activation: at 76.7 µM (top of the series), percent of rosiglitazone response, DMSO as zero unless noted
# How it was run: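 GeneBLAzer PPAR-gamma-UAS-bla HEK293 cells in 1% charcoal/dextran-treated FBS medium were treated 16 h at 37 C with compounds. Beta-lactamase activity was read by CCF4 ratio (460/530 nm). Response was normalized to 2 uM rosiglitazone (100%) and DMSO, then Hill-fitted for EC50 and efficacy.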
# [7] = qHTS assay for small molecule agonists of the antioxidant response element (ARE) signaling pathway (AID 651741; active = well fitted activation curve with a large enough effect in the signal ratio; inconclusive = small, poorly fitted or top-dose-only effect, or effect the other way, or a change in a side signal; the % refers to the signal ratio; note: potency is the fitted concentration of half-maximal effect; for activation: % of control where 0% means no effect); details: HepG2 ARE-bla reporter, beta-lactamase FRET ratio, 16 h; activation: at 96 µM (top of the series) unless noted
# How it was run: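 Compounds in DMSO are pinned onto HepG2 ARE-bla cells (2,000/well) that were preincubated 5 h; plates stay 16 h at 37 C, then beta-lactamase activity is detected with LiveBLAzer B/G substrate by fluorescence.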
# [8] = qHTS assay to identify small molecules that stimulate interleukin-8 (IL-8) secretion (AID 651758; active = well fitted activation curve with a large enough effect in the signal ratio; inconclusive = small, poorly fitted or top-dose-only effect, or effect the other way, or a change in a side signal; the % refers to the signal ratio; note: 0% is about no effect); details: HTRF ratio (665/615); activation: at 92.2 µM (top of the series)
# How it was run: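 THP-1, 2000 cells/well; cpd 16 h, 37 C; add cryptate + XL665 anti-IL-8 Abs; RT 1-3 h; TR-FRET read.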
# [9] = biological target: Nuclear receptor ROR-gamma (Homo sapiens) (UniProt P51449); assay: qHTS assay for small molecule antagonists of the retinoid-related orphan receptor gamma (ROR-gamma) signaling pathway (AID 651802); note: potency is the fitted concentration of half-maximal effect; nearly all actives have a fitted effect of over 60% in size
# UniProt P51449, sequence (P51449 whole entry, looked up): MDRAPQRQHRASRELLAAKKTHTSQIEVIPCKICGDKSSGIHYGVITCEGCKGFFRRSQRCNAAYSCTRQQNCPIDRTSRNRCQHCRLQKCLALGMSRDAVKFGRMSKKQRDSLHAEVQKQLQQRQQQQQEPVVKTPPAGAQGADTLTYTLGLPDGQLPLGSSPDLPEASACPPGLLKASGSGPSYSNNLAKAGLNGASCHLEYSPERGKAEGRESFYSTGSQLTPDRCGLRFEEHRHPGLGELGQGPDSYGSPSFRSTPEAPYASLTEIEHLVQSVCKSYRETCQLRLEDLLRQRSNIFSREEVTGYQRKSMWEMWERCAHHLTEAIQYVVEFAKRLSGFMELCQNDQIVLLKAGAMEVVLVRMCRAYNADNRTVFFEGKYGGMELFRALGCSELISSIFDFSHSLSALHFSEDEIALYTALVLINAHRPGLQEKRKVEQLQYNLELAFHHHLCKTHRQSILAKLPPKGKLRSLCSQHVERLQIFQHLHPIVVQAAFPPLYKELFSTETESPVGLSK
# How it was run: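 CHO cells with TET-inducible ROR-gamma and RORE-luciferase reporter, dosed then doxycycline-induced. After 16 h at 37C, One-Glo luminescence read; decreased signal indicates antagonism.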
# [10] = Cell Viability - Renal Proximal Tubule (AID 545); details: renal proximal tubule cells viability; at 91.7 µM (top of the series), primary cells of rat origin unless noted;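 note: cells exposed to compound for 40 hours; 0% = DMSO only and -100% = 100 µM tamoxifen; nearly all actives have a fitted effect of over 40% in size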
# How it was run: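 Cytotoxicity is scored as a concentration-dependent drop in cellular ATP in primary rat renal proximal tubule cells exposed for 40 hr. AC50 derives from Hill modelling.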
# [11] = Cell Viability - LYMP2-001 (AID 921); details: LYMP2-001 lymphoblastoid cell viability; activity change, negative = cytotoxic: at 92.2 µM (top of the series);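 note: 0% = DMSO only and full inhibition = tetraoctylammonium bromide control wells; nearly all actives have a fitted effect of over 70% in size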
# How it was run: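 qHTS, 1536-well; lymphoblastoid cells, 24 hr compound, 37 C; ATP by CellTiter-Glo, 30 min RT; luminescence; Hill-fit AC50.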
# [12] = MultiTox-Fluor Cytotoxicity Assay - LYMP1-002 - Dead Cells (AID 960); details: LYMP1-002 lymphoblastoid cells, dead-cell protease fluorescence; cytotoxicity (dead cells): at 46.1 µM (top of the series); note: potency is the fitted concentration of half-maximal effect; nearly all actives have a fitted effect of over 60% in size
# How it was run: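 Human lymphoblastoid LYMP1-002 cells, 2500/well, treated 16 h at 37 C; dead-cell protease cleavage of bis-AAF-R110 read by fluorescence (485/520); normalized to DMSO and 15 uM tetraoctylammonium bromide; AC50 from Hill fit.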
# [13] = Cell Viability - LYMP2-004 (AID 966); details: LYMP2-004 lymphoblastoid cell viability, qHTS; activity change, negative = cytotoxicity: at 92.2 µM (top of the series); note: nearly all actives have a fitted effect of over 65% in size; note: potency is the fitted concentration of half-maximal effect;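 for activity change, negative = cytotoxicity: plate controls were DMSO only for no effect and tetraoctylammonium bromide control for full effect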
# How it was run: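 Lymphoblastoid LYMP2-004 cells, 2500 per well, were preincubated for 5 hr and then treated with compound for 24 h at 37 C in complete medium. Viability was read as cellular ATP by CellTiter-Glo luminescence, and AC50 values were taken from Hill fits to concentration-response data.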
# [14] = Cell Viability - LYMP2-010 (AID 981);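 note: cells exposed to compound for 24 hours at 37 °C; % is set by controls: 0 for no effect and ±100 for the full control effect; nearly all actives have a fitted effect of over 55% in size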
# How it was run: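 Human lymphoblastoid LYMP2-010 cells (2500/well) treated 24 h at 37 C in complete medium; viability read as intracellular ATP by CellTiter-Glo luminescence. AC50 from Hill fits of concentration-response data; tetraoctylammonium bromide positive control.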
# [15] = qHTS assay for small molecule disruptors of the mitochondrial membrane potential - 5 hr assay (AID 651755; calls by dose curve; note: % is set by controls: 0 for no effect and ±100 for the full control effect; nearly all actives have a fitted effect of over 40% in size); details: JC-1-type ratio dye; ratio change, negative = disruption: at 92.2 µM (top of the series)
# How it was run: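 HepG2 cells, attached overnight at 37C, were exposed to compound or DMSO for 5 hr at 37C, 5% CO2. Mito-MPS dye was then added for 30 min, and fluorescence read at 490/535 nm (monomers) and 540/590 nm (aggregates).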
# [16] = qHTS assay for small molecule antagonists of the retinoid-related orphan receptor gamma (ROR-gamma) signaling pathway - cell viability counter screen (AID 720652; active = well fitted curve in the direction sought with a large enough effect in the repeat runs; inconclusive = weak or mixed curves; inactive = no such curve, though single readings can be large; an effect the other way counts as inactive or inconclusive;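 note: compound exposure lasted 16 hr before ATP read; % is set by controls: 0 for no effect and ±100 for the full control effect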)
# How it was run: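 CHO cells carrying TET-inducible ROR and RORE-luciferase reporter, plated 5 hr, then dosed with compound plus doxycycline. After 16 hr at 37 C, viability read as intracellular ATP by CellTiter-Glo luminescence.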
# [17] = biological target: Retinoic acid receptor RXR-alpha (Homo sapiens) (UniProt P19793); assay: qHTS assay for small molecule antagonists of retinoid X receptor alpha signaling (AID 588546; active = well fitted inhibition curve with a large enough effect in the signal ratio, with a control signal flat, not every such curve was filed as active; inconclusive = small, poorly fitted or top-dose-only effect, or effect the other way, or a change in a side signal; inactive = no such curve, though single readings can be large or run the other way; the % refers to the signal ratio;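 note: cells stimulated with 9-cis-retinoic acid as agonist; % is set by controls: 0 for no effect and ±100 for the full control effect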); details: HEK293T RXRa-UAS-bla, beta-lactamase ratio, antagonist mode
# UniProt P19793, sequence (P19793 whole entry, looked up): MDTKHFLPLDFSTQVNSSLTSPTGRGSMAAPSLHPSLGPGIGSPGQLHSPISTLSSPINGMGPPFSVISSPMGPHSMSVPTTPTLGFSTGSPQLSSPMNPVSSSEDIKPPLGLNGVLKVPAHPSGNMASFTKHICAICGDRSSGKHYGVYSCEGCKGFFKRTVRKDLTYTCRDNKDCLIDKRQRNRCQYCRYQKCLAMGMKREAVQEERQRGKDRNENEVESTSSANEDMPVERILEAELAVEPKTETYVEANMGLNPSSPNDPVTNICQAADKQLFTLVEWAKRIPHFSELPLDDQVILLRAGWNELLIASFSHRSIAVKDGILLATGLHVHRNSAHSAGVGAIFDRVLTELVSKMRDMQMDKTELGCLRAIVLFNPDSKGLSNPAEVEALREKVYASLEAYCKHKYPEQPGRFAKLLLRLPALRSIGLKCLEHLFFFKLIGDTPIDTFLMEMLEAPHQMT
# How it was run: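 Beta-lactamase reporter inhibition, read as CCF4 fluorescence ratio (ex 405, em 460/530 nm) after 2 h at RT. HEK293T UAS-bla cells, 2500/well, were stimulated with 9-cis-RA at 500 or 100 nM final alongside test compound for 18 h at 37 C.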
# [18] = biological target: Bile acid receptor (Homo sapiens) (UniProt Q96RI1); assay: qHTS assay for small molecule agonists of farnesoid X receptor signaling (AID 588527; calls by dose curve;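 note: 0% = vehicle basal and 100% = reference agonist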); details: HEK293T FXR-UAS-bla, beta-lactamase ratio, 16 h; activation: stronger effect = higher value
# UniProt Q96RI1, sequence (Q96RI1 whole entry, looked up): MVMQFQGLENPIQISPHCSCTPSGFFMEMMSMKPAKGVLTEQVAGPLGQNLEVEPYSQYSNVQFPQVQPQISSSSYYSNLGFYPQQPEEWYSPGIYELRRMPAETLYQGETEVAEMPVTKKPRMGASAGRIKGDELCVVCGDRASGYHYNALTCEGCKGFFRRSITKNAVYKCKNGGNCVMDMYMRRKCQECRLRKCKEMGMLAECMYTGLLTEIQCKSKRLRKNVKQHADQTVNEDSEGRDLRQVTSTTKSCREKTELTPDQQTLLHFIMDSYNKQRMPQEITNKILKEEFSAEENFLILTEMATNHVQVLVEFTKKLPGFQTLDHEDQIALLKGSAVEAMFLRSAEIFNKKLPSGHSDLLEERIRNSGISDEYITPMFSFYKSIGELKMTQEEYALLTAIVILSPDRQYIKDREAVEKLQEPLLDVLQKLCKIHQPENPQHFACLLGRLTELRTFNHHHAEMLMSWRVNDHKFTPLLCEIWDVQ
# How it was run: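 FXR-UAS-bla HEK293T cells (10% dialyzed FBS) preincubated 5-7 h at 37 C, then compounds at up to 92 uM for 16 h at 37 C. CCF4 beta-lactamase read-out after 2 h RT. Normalized to chenodeoxycholic acid (100 uM) and DMSO; Hill fit gave EC50 and efficacy.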
# [19] = biological target: Glucocorticoid receptor (Homo sapiens) (UniProt P04150); assay: qHTS assay for small molecule antagonists of glucocorticoid receptor signaling (AID 588533; active = well fitted inhibition curve with a large enough effect in the signal ratio, with a control signal flat, not every such curve was filed as active; inconclusive = small, poorly fitted or top-dose-only effect, or effect the other way, or a change in a side signal; the % refers to the signal ratio;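 note: cells stimulated with 2 nM dexamethasone as agonist; % is set by controls: 0 for no effect and ±100 for the full control effect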); details: HeLa MMTV-bla, GRE beta-lactamase ratio, antagonist mode, 18 h; activity change, negative = inhibition: at 76.8 µM (top of the series) unless noted
# [20] = biological target: Peroxisome proliferator-activated receptor delta (Homo sapiens) (UniProt Q03181); assay: qHTS assay for small molecule antagonists of peroxisome proliferator-activated receptor delta signaling (AID 588535; active = well fitted inhibition curve with a large enough effect in the signal ratio, with a control signal flat, not every such curve was filed as active; inconclusive = small, poorly fitted or top-dose-only effect, or effect the other way, or a change in a side signal; inactive = no such curve, though single readings can be large or run the other way; the % refers to the signal ratio); details: HEK293T PPARd-UAS-bla, beta-lactamase FRET ratio, 18 h; activity change, negative = inhibition: at 76.7 µM (top of the series) unless noted
# UniProt Q03181, sequence (Q03181 whole entry, looked up): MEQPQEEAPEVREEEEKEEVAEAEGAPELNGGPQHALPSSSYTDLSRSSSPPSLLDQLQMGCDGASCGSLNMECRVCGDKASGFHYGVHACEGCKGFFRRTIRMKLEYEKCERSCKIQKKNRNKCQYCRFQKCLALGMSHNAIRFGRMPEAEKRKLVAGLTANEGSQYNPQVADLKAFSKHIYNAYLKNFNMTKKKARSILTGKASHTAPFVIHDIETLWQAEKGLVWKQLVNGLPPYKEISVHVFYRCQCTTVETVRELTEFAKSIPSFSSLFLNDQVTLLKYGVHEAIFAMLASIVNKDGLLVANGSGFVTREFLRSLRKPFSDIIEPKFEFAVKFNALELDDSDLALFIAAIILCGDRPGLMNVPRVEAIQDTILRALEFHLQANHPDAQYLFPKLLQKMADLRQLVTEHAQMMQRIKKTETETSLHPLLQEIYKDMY
# How it was run: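 Reporter: UAS-bla under PPAR-delta response element, HEK293T host. Medium: 2% charcoal/dextran FBS. Dosing: titration, 18 hrs, 37 C. Detection: CCF4, 2 hrs RT, 405 ex/460 and 530 em.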
# [21] = biological target: Peroxisome proliferator-activated receptor gamma (Homo sapiens) (UniProt P37231); assay: qHTS assay for small molecule antagonists of peroxisome proliferator-activated receptor gamma signaling (AID 588537; active = well fitted inhibition curve with a large enough effect in the signal ratio, with a control signal flat, not every such curve was filed as active; inconclusive = small, poorly fitted or top-dose-only effect, or effect the other way, or a change in a side signal; the % refers to the signal ratio;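 note: reporter cells co-stimulated with 50 nM rosiglitazone agonist during compound treatment; % of control where 0% means no effect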); details: HEK293 PPARg-UAS-bla, beta-lactamase ratio, antagonist mode; activity, negative = inhibition: at 76.8 µM (top of the series)
# How it was run: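 We seeded GeneBLAzer HEK293 reporter cells at 3000 per well, allowed 6-6.5 h attachment at 37 C, then co-treated with test compound titrations and 50 nM rosiglitazone overnight (16 h). Inhibition was quantified from 460/530 nm emission ratios.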
# [22] = biological target: Thyroid hormone receptor beta (Homo sapiens) (UniProt P10828); assay: qHTS assay for small molecule agonists of thyroid hormone receptor beta signaling (AID 588545; calls by dose curve; note: potency is the fitted concentration of half-maximal effect); details: TR-UAS-bla GripTite HEK 293, beta-lactamase ratio, agonist mode, 18 h; activation: at 76.7 µM, percent of T3 response, DMSO as zero
# UniProt P10828, sequence (P10828 whole entry, looked up): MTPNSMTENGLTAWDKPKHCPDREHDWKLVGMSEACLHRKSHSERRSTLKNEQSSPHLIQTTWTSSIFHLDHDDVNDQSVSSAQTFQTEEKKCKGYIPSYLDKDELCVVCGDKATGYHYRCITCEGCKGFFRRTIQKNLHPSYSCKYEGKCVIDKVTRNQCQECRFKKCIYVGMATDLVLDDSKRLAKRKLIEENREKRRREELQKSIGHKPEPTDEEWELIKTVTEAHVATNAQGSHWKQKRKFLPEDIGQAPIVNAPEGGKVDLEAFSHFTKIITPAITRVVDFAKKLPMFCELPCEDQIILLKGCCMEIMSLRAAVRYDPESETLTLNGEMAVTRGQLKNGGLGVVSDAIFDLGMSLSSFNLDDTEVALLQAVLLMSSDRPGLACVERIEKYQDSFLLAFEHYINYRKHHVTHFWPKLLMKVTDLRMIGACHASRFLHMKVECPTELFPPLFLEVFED
# How it was run: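 TR-UAS-bla-GripTite HEK 293 cells in medium with 2% charcoal/dextran FBS, 0.1 mM NEAA and 1 mM sodium pyruvate were treated with titrated compounds for 18 hrs at 37 C. Beta-lactamase reporter was read with CCF4 dye (ex 405, em 460/530 nm); EC50 from Hill fits.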
# [23] = biological target: Thyroid hormone receptor beta (Homo sapiens) (UniProt P10828); assay: qHTS assay for small molecule antagonists of thyroid hormone receptor beta signaling (AID 588547; active = well fitted inhibition curve with a large enough effect in the signal ratio, with a control signal flat, not every such curve was filed as active; inconclusive = small, poorly fitted or top-dose-only effect, or effect the other way, or a change in a side signal; the % refers to the signal ratio; note: potency is the fitted concentration of half-maximal effect); details: TR-UAS-bla HEK293, beta-lactamase ratio, antagonist mode, 18 h
# How it was run: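 TR-UAS-bla GripTite HEK293 cells in 2% charcoal/dextran FBS medium were preincubated 4 h at 37 C, given compound (0.59 nM to 92 uM) plus 0.4 nM T3 (final) for 18 h, then CCF4 for 2 h at RT; Hill fit gave IC50.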
# [24] = qHTS assay for cell viability of the p53RE-bla HCT-116 cell line (AID 743292); note: % is set by controls: 0 for no effect and ±100 for the full control effect; nearly all actives have a fitted effect of over 55% in size
# How it was run: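 In this qHTS counter-screen, metabolically competent p53RE-bla HCT-116 cells were counted via their ATP content. Compounds were applied for 16 h at 37 C and luciferase-coupled luminescence was measured.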
# [25] = activity, negative = inhibition: at 76.9 µM (top of the series) unless noted
# Tags give direction and shape of the fitted curve or compound fluorescence and quenching.
smiles,measurement,setting,value
Cc1nc(N(C)C)nc(OC(=O)N(C)C)c1C,"activity, negative = inhibition",[1]; [25],inconclusive: -18.3%
same,Potency,[2],"inconclusive: 50.1 µM [side channel, rising, single point]"
CC(C)C1C(=O)N2CCCC2[C@]2(O)O[C@@](NC(=O)[C@@H]3C=C4c5cccc6[nH]cc(c56)C[C@H]4N(C)C3)(C(C)C)C(=O)N12 (stereo partly specified),Potency,[3],"inconclusive: 21.1 µM [inhibitor, single point]"
CC1=C(O)C(=O)[C@H]2O[C@@H]2C1=O,Potency,[3],"inconclusive: 23.7 µM [inhibitor, single point]"
Cc1ccc(N)cc1Cl,"activity change, negative = cytotoxicity",[4],inactive: 6.77%
same,Potency,[5],inactive
same,Potency,[6],inactive
same,activation,[7],inconclusive: 10.5%
same,Potency,[8],inactive
same,Potency,[9],"inconclusive: 1.19 µM [inhibitor, full curve, poor fit]"
Cl/C=C\Cl,"activity change, negative = cytotoxicity",[10],inactive: -3.68%
same,Potency,[11],inactive
same,Potency,[12],"inconclusive: 15.8 µM [cytotoxic, partial curve, poor fit]"
same,Potency,[13],inactive
same,Potency,[14],inactive
same,Potency,[2],inactive
same,activation,[7],inconclusive: 12.5%
same,"ratio change, negative = disruption",[15],inconclusive: -1.21%
same,activation,[8],inconclusive: 5.66%
same,Potency,[16],inactive
c1ccc(C2CO2)cc1 (stereo unspecified),"activity change, negative = cytotoxicity",[10],inactive: -2.5%
same,Potency,[13],"inconclusive: 6.31 µM [cytotoxic, full curve, poor fit]"
same,max response,[17],inactive: 32.3%
same,Potency,[8],inactive
C=CC(=O)NCO,"activity, negative = inhibition",[1]; [25],inconclusive: 11.5% [at 2.03 mM]
same,"activity, negative = inhibition",[1]; at 76.9 µM (top of the series),inactive: -15.1%
same,activation,[18],inactive: 0.901% and inactive: -4.9%
same,"activity change, negative = inhibition",[19],inconclusive: 48% [at 2.03 mM]
same,"activity change, negative = inhibition",[20],inconclusive: 40.7% [at 2.03 mM]
same,activation,[6],"inconclusive: 25.8% [at 2.03 mM, percent of rosiglitazone response, DMSO as zero]"
same,Potency,[21],inactive
same,Potency,[22],"inconclusive: 0.141 µM [side channel, falling, full curve, poor fit]"
same,Potency,[23],"inconclusive: 0.0089 µM [side channel, falling, full curve, poor fit]"
same,activity change % (negative = inhibition),[23],inactive: 0.0569%
same,Potency,[7],active: 501 µM
same,Potency,[24],inactive
